According to PubChem BioAssay AID1159614 (National Center for Advancing Translational Sciences (NCATS), 2016):
In all, about 45,000 compounds went through this assay and about 65 (0.1%) were called active. Calls follow the shape of the dose curve; as a rule, active = well fitted activation curve with a large enough effect; inconclusive = small, poorly fitted or top-dose-only effect; inactive = no such curve, though single readings can be large or run the other way. Some of the results follow.

The compounds below were run against Galactocerebrosidase (Homo sapiens) (UniProt P54803) (assay: A Novel Cell-Based Assay to Identify Small Molecules for B -Galactocerebrosidase). Details: 145M-Twi-hGALC-G270D cells (Twitcher mouse brain line with human GALC G270D), HMU-beta-Gal fluorescence, 48 h; series mostly up to 57.5 µM; activation: at the top concentration.
Summary of the method: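 Live 145M-Twi cells (Twitcher mouse brain-derived, GALC-null) stably expressing human GALC-G270D, with a wild-type GALC line, were compound-treated. Residual GALC activity was then read as fluorescence from 0.1 mM final HMU-β-gal at pH 5.2; higher signal means activation.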
Also: nearly all actives have a fitted effect of over 65% in size.
For activation in this document: 0% is about no effect.
Potency is read from the fitted curve at half-maximal effect.

Sequence of UniProt P54803 (P54803 whole entry, looked up): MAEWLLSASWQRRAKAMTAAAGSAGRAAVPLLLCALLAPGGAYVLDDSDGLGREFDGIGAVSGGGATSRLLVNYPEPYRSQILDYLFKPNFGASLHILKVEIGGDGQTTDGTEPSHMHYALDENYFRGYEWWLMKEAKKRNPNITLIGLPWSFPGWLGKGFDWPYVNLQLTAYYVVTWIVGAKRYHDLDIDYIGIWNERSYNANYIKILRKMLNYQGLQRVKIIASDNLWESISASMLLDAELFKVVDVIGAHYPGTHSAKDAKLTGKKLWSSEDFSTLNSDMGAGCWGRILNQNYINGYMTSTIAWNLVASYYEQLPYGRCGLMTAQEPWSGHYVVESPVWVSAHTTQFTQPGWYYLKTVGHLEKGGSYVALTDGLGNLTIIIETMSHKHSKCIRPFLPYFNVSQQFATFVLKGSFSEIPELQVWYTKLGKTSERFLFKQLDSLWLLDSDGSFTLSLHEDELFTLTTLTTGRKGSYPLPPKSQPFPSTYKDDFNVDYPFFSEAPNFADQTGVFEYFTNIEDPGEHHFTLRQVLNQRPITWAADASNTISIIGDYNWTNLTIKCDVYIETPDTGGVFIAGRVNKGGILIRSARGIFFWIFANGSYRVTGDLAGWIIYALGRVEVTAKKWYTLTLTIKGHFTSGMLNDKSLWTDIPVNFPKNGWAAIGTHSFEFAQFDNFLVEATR

| Structure (SMILES) | activation | Potency |
| --- | --- | --- |
| CC(C)(Oc1ccc(CCNC(=O)c2ccc(Cl)cc2)cc1)C(=O)O | inactive: -15.2% | – |
| OCCN1CCN(CCCN2c3ccccc3Sc3ccc(C(F)(F)F)cc32)CC1 | inactive: -12.7% | – |
| Cc1ccc(C)c(S(=O)(=O)c2cn(C)c3cc(N4CCCCC4C)c(F)cc3c2=O)c1 (stereo not given) | inactive: 7.6% | – |
| COc1ccc(OC)c(NCc2cccn2-c2nnc(N3CCCCC3)s2)c1 | inactive: -17.2% | – |
| CN1CCc2c(sc3c2C(=O)NC(c2ccc(OC(=O)c4ccccc4)cc2)N3)C1 (stereo not given) | inactive: -21.2% | – |
| Cc1ccc(NC(=O)C(Cc2ccccc2)n2cccc2)cc1 (stereo not given) | inactive: -8.12% | – |
| COc1ccccc1CNC(=O)C1CCCN(C(=O)c2cnn(-c3ccc(F)cc3)c2-n2cccc2)C1 (stereo not given) | inactive: -7% | – |
| COCCCn1c(=O)c2sccc2n2c(CCCC(=O)Nc3cc(C)cc(C)c3)nnc12 | inactive: -12.7% | – |
| COc1ccc(C(=O)NCCn2cc(SCC(=O)Nc3ccc(C)cc3)c3ccccc32)cc1 | inactive: -12.2% | – |
| Cc1ccc(CNC(=O)NCc2noc3ccc(C)cc23)cc1 | inactive: -14.5% | – |
| Cc1cccc(-c2nc3c4ccccc4nc(N4CCN(c5ccccc5F)CC4)n3n2)c1 | inactive: 2.89% | – |
| Cn1c(=O)c2c(-c3ccc(Cl)cc3)n(Cc3ccc(Cl)cc3)cc2n(C)c1=O | inactive: -8.5% | – |
| COc1ccc(C)cc1NC(=O)c1ccc2c(=O)n3c(nc2c1)CCCCC3 | inactive: 4.53% | – |
| c1ccc(CC2=NCCN2)cc1 | inactive: -10.3% | – |
| CCCCNC(=O)C1CCN(S(=O)(=O)CCC)CC1 | inactive: -4.71% | – |
| COc1ccc(OC)c(CNC(=O)c2ccc(C)c(NC(=O)c3nsc4ccccc34)c2)c1 | inactive: -12% | – |
| COc1ccc(-c2cc(C)no2)cc1S(=O)(=O)Nc1c(C)cc(C)cc1C | inactive: -13.2% | – |
| CCOc1ccc(OCC)c(NS(=O)(=O)c2cc(-c3cnc(C)o3)ccc2OC)c1 | inactive: -10.1% | – |
| Cc1ccc(Cn2c(CNS(=O)(=O)c3cccc([N+](=O)[O-])c3)nc3cccnc32)cc1 | inactive: -0.906% | – |
| COC(=O)c1cc2sc(Cl)cc2n1Cc1c(C)cc(C)cc1C | inactive: -9.56% | – |
| CCn1c2ccccc2c2cc(NC(=O)COc3ccc(C)cc3C)ccc21 | inactive: -0.509% | – |
| COc1ccc(-c2c(C)c3ccc(O)c(CN4CCOCC4)c3oc2=O)cc1 | inactive: -8.79% | – |
| COCCNC(=O)Nc1cc(C(=O)NCc2ccc(C(C)C)cc2)ccc1N1CCCC1 | inactive: -7.45% | – |
| COc1cc(C2NC(=O)c3c(sc4c3CCN(C)C4)N2)cc(Br)c1OC(=O)c1ccc(C)cc1 (stereo not given) | – | active: 22.4 µM |
| Cc1ccccc1-n1nc(CO)c(C(=O)NCc2cccnc2)n1 | inactive: -15.3% | – |

| Structure (SMILES) | activation | Potency |
| --- | --- | --- |
| CCc1cccc(C)c1NC(=O)Cn1cnc2c1c(=O)n(C)c(=O)n2C | inactive: -27.6% | – |
| CCOC(=O)C1CCN(C(c2ccc(SC)cc2)c2c(O)cc(C)n(Cc3ccco3)c2=O)CC1 (stereo not given) | inactive: -9.15% | – |
| Cc1nc2nncn2c(Nc2ccccc2)c1C | inactive: -15.8% | – |
| COc1ccc(OC)c(NC(=O)c2c(N3CCCC3=O)c3cc(OC)ccc3n2C)c1 | inactive: -7.21% | – |
| CCOC(=O)c1c(-c2ccccc2)csc1NC(=O)c1cc(=O)c2ccc(C)cc2o1 | inactive: -26.5% | – |
| CCc1nn2c(=O)cc(COC(=O)c3cccc(NC(=O)c4cccs4)c3)nc2s1 | inactive: -5.25% | – |
| COc1cccc(C(=O)NCCc2csc(-c3ccc(Cl)cc3)n2)c1 | inactive: -3.24% | – |
| Cc1cccc(NC(=O)CCS(=O)(=O)c2cccc3nsnc23)c1C | inactive: 9.7% | – |
| COc1ccccc1N1CCN(c2ncnc3onc(-c4ccc(F)cc4)c23)CC1 | inactive: -22.3% | – |
| Cc1ccc(NC(=O)C2CCN(S(=O)(=O)c3ccc4[nH]c5c(c4c3)CCCCC5)CC2)cc1 | inactive: -18.8% | – |
| COC(=O)c1c(NC(=O)CCCOc2ccc(C(C)(C)C)cc2)sc2c1C(C(=O)OC)CC2 (stereo not given) | inactive: -12.3% | – |
| CCc1ccc(CNC(=O)C(C)n2ccc3cc(S(=O)(=O)N4CCCCCC4)ccc32)cc1 (stereo not given) | inactive: -14.1% | – |
| COc1ccc(N2CCN(C(=O)CCn3c(=O)[nH]c4cc(OC)c(OC)cc4c3=O)CC2)cc1 | inactive: -17.5% | – |
| Cc1ccc(C)c(NC(=O)C2CCCN(c3nc4ccccc4s3)C2)c1 (stereo not given) | inactive: -11.9% | – |
| CC1CN(C(=O)N2CCC(C(=O)NCc3cccs3)CC2)c2cc(Cl)ccc2O1 (stereo not given) | inactive: -6.25% | – |
| CCOC(=O)CSC1=Nc2ccccc2C2=NC(CCC(=O)NCc3ccc(F)cc3)C(=O)N12 (stereo not given) | inactive: -13.3% | – |
| O=C(NCc1cccc(F)c1)C1CCCN(C(=O)N2CCOc3ccccc32)C1 (stereo not given) | inactive: -14% | – |
| Clc1cccc(CSc2ccc(-c3cccs3)nn2)c1 | inactive: 2.19% | – |
| COC(=O)CN1C(C(=O)c2ccccc2)=C(OC(=O)c2ccc(C)cc2)c2ccccc2S1(=O)=O | inactive: -3.44% | – |
| O=C(c1cccn1-c1nnc(N2CCCCC2)s1)N1CCN(c2ccccc2)CC1 | inactive: -13.1% | – |
| CC(C)C[C@H](NC(=O)[C@H](Cc1ccccc1)NC(=O)c1cnccn1)B(O)O | inactive: -13.6% | – |
| CCOC(=O)c1c(C)oc2nc(C)nc(N3CCN(c4ccc(OC)cc4)CC3)c12 | inactive: -16.4% | – |
| CCNC(=O)C1CCN(Cc2cc3ccccc3n2Cc2ccc(C)cc2)CC1 | inactive: -13.8% | – |
| COc1ccccc1Cn1c(SCC(=O)C(C)(C)C)nc2ccccc2c1=O | inactive: -7.96% | – |
| CCOc1ccccc1CNC(=O)CCCN1C(=O)c2cccnc2Oc2ccc(Cl)cc21 | inactive: 1.31% | – |
